Results reported in ChEMBL document CHEMBL4888484, “Replenishing the malaria drug discovery pipeline: Screening and hit evaluation of the MMV Hit Generation Library 1 (HGL1) against asexual blood stage Plasmodium falciparum ,using a nano luciferase reporter read-out” (2022).
About 540 (0.36%) of roughly 150,000 compounds showed an effect of 50% or more. This is one part of the list.

The compounds below were run on Plasmodium falciparum (assay: Primary screen in NF54 nanoGlo assay, in single point, at 2uM, 72h; a lower Z score goes with more inhibition). Details: timepoint 72 hour.
Type: functional, Erythrocyte

| Structure (SMILES) | % Inhibition | Z score |
| --- | --- | --- |
| Cn1nnc2c(NC3CCCCCC3)ncnc21 | -7% | 1.36 |
| Cc1ccc(C)c([C@@H](O)Cn2nc(C(N)=O)ccc2=O)c1 | 6% | -0.6 |
| COc1cc2c(cc1OC)CN(C(=O)CNc1nc(C)cc(C)n1)CC2 | -13% | 1.65 |
| CCOC(=O)c1cc(NC(=O)N2CCC[C@H]2C2CCC2)c[nH]1 | 0% | -0.04 |
| C[C@H](N(C)C(=O)c1ccc(Br)o1)C(C)(C)C | -13% | 2.03 |
| Cc1noc(C)c1S(=O)(=O)NC[C@H](OCCO)c1ccsc1 | 4% | -0.4 |
| Cc1nn(-c2cccc(F)c2)cc1CN[C@@H](C)c1ncn(C)n1 | -17% | 2.56 |
| CC(C)(C(=O)N1C[C@H](N)C2(CCC2)C1)C(F)(F)F | 2% | -0.22 |
| CCc1nc(-c2nn(-c3ccc(Cl)cc3)c(=O)n(CC(=O)O)c2=O)no1 | -8% | 0.93 |
| CCCc1ccc([C@H](C)N(CC(N)=O)Cc2csc(-c3ccccc3)n2)cc1 | 8% | -1.03 |
| COc1cccc(-c2nc3c([nH]2)CCN(Cc2nnc(C)o2)C3)c1 | -16% | 1.75 |
| C=C(C)CC(C)C(=O)N1CC2(CCC2)C1c1cccnc1 (configuration not stated) | -5% | 0.73 |
| CN(C)S(=O)(=O)c1ccc(C(=O)NC[C@]2(O)CCCc3occc32)cc1 | 10% | -1.24 |
| CCNC(=O)NC1(CC2CC2)CCN(S(=O)(=O)c2ccc3c(c2)CCC3)CC1 | -9% | 1.8 |
| COc1ccc(Br)c(CS(N)(=O)=O)c1 | -4% | 0.64 |
| COc1cc(CNCCc2ccncc2C)sn1 | 5% | -0.61 |
| COc1ccccc1CN1CCC[C@H](c2nnc(Cn3cccn3)n2C)C1 | -16% | 1.53 |
| COc1cc(OC)c(NC(=O)Cn2c(N3CCc4ccccc4C3)nc(C)cc2=O)cc1Cl | -1% | 0.11 |
| Cn1cncc1Cc1nc(-c2ccccc2)no1 | -5% | 0.84 |
| C=CCN(C(=O)CCc1c(C)nc2c(C(N)=O)cnn2c1C)c1nc2c(s1)CCCC2 | 0% | 0.08 |
| Cc1cnc2c(C(=O)N3CC(Oc4ccccc4C)C3)cnn2c1 | -23% | 2.66 |
| CCn1cc(NS(=O)(=O)c2ccc3c(c2)CCCC3)cn1 | 3% | -0.42 |

| Structure (SMILES) | % Inhibition | Z score |
| --- | --- | --- |
| O=c1c2c([nH]c3ccccc13)OCCC2 | 6% | -1.21 |
| O=C([C@H]1CCCN(c2ncnc3c2nc2n3CCCCC2)C1)N1CCN(c2ncccn2)CC1 | -6% | 0.94 |
| O=C(CN(C(=O)C1CCC1)C1CC1)N1CCN(c2ccc(-c3ccc(Cl)cc3Cl)nn2)CC1 | 5% | -0.71 |
| C[C@@H](c1ccncn1)N(C)Cc1noc(C2CCCC2)n1 | -10% | 1.19 |
| COc1ccc(S(=O)(=O)NCc2ccsc2)cn1 | -2% | 0.24 |
| Cc1ccccc1COC1CN(C(=O)[C@H]2CC(=O)N(CCN(C)C)C2)C1 | 6% | -0.61 |
| COc1ccc(Cl)cc1[C@@H](O)CNC(=O)c1cccc2c1OCC2 | 3% | -0.26 |
| CCOc1nccnc1NCc1ccncc1 | -15% | 2.12 |
| CC1CCCC(C)C1NC(=O)c1ccc2c(c1)OCO2 (configuration not stated) | -10% | 1.49 |
| COc1ccccc1CC1(O)CCN(C(=O)N(C)C2CCOCC2)CC1 | -1% | 0.15 |
| Cc1cc(C(=O)NCc2cncc(N3CCCC3=O)c2)n(C)n1 | -4% | 0.78 |
| Cc1ccncc1NS(=O)(=O)c1ccc2ccccc2c1 | 7% | -1.13 |
| COCc1cccc(C(=O)N[C@@H]2[C@@H]3CCO[C@@H]3[C@H]2NC(C)=O)n1 | -1% | 0.19 |
| Cc1cccc(Oc2cnn(-c3ccc(F)cc3)c(=O)c2Nc2ccc(C(=O)NCCc3ccccn3)cc2)c1 | 7% | -0.69 |
| CN(c1cccc(NC(=O)CCCN(c2ccccc2)S(C)(=O)=O)c1)S(C)(=O)=O | -44% | 5.18 |
| CC(=O)c1nccn1CC(=O)NC(C)C | -10% | 1.39 |
| CC(C)(C)c1nnc([C@H]2CCN(Cc3ccncc3)C2)o1 | -14% | 1.77 |
| Cc1cc(C(=O)N2CCC[C@@H]2C(N)=O)cs1 | -8% | 1.49 |
| CC(C)c1nc(CC(=O)Nc2ccccn2)cs1 | -18% | 1.98 |
| CCOC(=O)CN(C)S(=O)(=O)c1ccc(Cl)cc1F | 3% | -0.34 |
| O=C(O)[C@@]1(CCOc2ccccc2)CCCN(c2ccc(Cl)cn2)C1 | -14% | 2.64 |
| O=C(Cc1c(F)cccc1F)Nc1ncc(C2CCNCC2)s1 | 4% | -0.73 |

| Structure (SMILES) | % Inhibition | Z score |
| --- | --- | --- |
| N#Cc1ccc(S(=O)(=O)N2CCCC3CC32)c(NCCO)c1 (configuration not stated) | -7% | 1.14 |
| Cc1cc(C#N)cc(N2CC[C@@H](O)C2)n1 | -3% | 0.47 |
| O=C(COc1ccc(Cl)cc1S(=O)(=O)Nc1cccc(C2OCCCO2)c1)N1CCOCC1 | -13% | 2.03 |
| CC[C@@H](CO)NC(=O)Nc1cc(C)on1 | -7% | 0.93 |
| COc1ccccc1C(=O)N1CCN(Cc2cc(=O)c3c(C)cc(C)cc3[nH]2)CC1 | -9% | 1.28 |
| COc1ccc(CCCN(C)C(C)C(C)O)cc1 (configuration not stated) | -4% | 0.49 |
| O=C(c1ccccn1)N1C[C@H]2CC[C@@H](C1)N(C(=O)Cc1ccccc1F)C2 | -5% | 0.95 |
| c1cnn(-c2cc(N3CCC(n4cc(-c5ccsc5)nn4)CC3)ncn2)c1 | 2% | -0.4 |
| CCn1c(-c2cccnc2)nc2cc(NC(=O)COC)cc(C(=O)NCc3ccccc3OC)c21 | 12% | -1.58 |
| COCCc1nc2c(c(N3CCN(c4ccccc4OC)CC3)n1)CCOCC2 | -2% | 0.17 |
| CC1CCCCN1C(=O)NC1CCOc2ccccc21 (configuration not stated) | 1% | -0.26 |
| O=c1[nH]c2ccccc2c(-c2ccccc2)c1Oc1cccc(F)c1 | -16% | 1.36 |
| O=C(Nc1cccc(Cl)c1)Nc1nnc2cccc(Cl)n12 | -18% | 2.03 |
| Cc1cc(N)n(CC(=O)NCc2cc(COc3ccccc3)cs2)n1 | 2% | -0.3 |
| Cc1noc(C)c1CN1C(=O)[C@@H]2CC[C@H]1CN(C(=O)CCC(=O)N(C)C)C2 | -2% | 0.29 |
| N#Cc1ccnc(O[C@H]2CCN(C(=O)CN3CCN(c4ccccc4)C3=O)C2)c1 | -16% | 3.13 |
| O=C([C@@H]1CCC(=O)N1S(=O)(=O)c1ccccc1)N1CCN(Cc2ccccc2)CC1 | -15% | 2.1 |
| CC[C@@H](CO)NCc1ccc(OCc2ccccc2)c(OCc2ccccc2)c1 | 4% | -0.53 |
| CC1(C)C(c2ccccc2)=NC(c2ccc(F)cc2)=[N+]1[O-] | -8% | 1.57 |
| CCN(C(=O)Nc1nnc(-c2cc3ccccc3o2)s1)C1CC1 | -9% | 1.46 |
| Cc1nnc(C(C)NC2CCC[C@@H]3C[C@H]23)[nH]1 (some centres not stated) | -10% | 1.36 |
| Cc1nnc(CCNC(=O)CNC(=O)N(C)C)s1 | 1% | -0.08 |

| Structure (SMILES) | % Inhibition | Z score |
| --- | --- | --- |
| Cc1noc(C2CN(C(=O)c3ccnc(-c4ccco4)c3)C2)n1 | -15% | 1.92 |
| CCCn1cc(CN(C)[C@H]2CCN(S(C)(=O)=O)C2)cn1 | -10% | 1.17 |
| Cc1ncn(Cc2ccncc2F)c1C | 4% | -0.48 |
| CCOCc1ccccc1CNC(=O)N[C@@H](C)CC | -11% | 1.07 |
| CC(=O)c1ccc(NC(=O)c2cnc(-c3ccc4c(c3)CCO4)s2)cc1 | 31% | -4.06 |
| CCc1ccsc1CNC(=O)CN(C)C(C)C | -7% | 1 |
| O=C(Nc1c(C(=O)c2ccccc2)oc2ccccc12)c1cc(-c2ccccc2)on1 | -4% | 0.62 |
| CCN1CCN(CCCNC(=O)CCCc2nnc(C(=O)Nc3cccc(F)c3)s2)CC1 | -6% | 1.04 |
| Cn1cc(C(=O)N2CCC[C@H]2C(F)(F)F)nn1 | -4% | 0.71 |
| CNC(=O)[C@@H]1CN(C(=O)Cc2c[nH]c3ccccc23)C[C@H]1c1nc(COC)no1 | 1% | -0.1 |
| Cn1cc(CCC(=O)N2CCCCc3cc(Cl)ccc32)cn1 | -17% | 2.15 |
| CC1=C(C(=O)N2CCN(c3cccc(Cl)c3)CC2)OCCO1 | 12% | -1.64 |
| C#CCN(C(=O)C[C@H]1C(=O)NCCN1Cc1cccnc1)C1CCCCC1 | -15% | 2.16 |
| CCc1nc(Cn2ccnc2-c2ccc3ccccc3n2)no1 | -7% | 0.69 |
| CCCOc1ccccc1CN1CCN(C)[C@]2(CCC(=O)N(C)CC2)C1 | -30% | 2.69 |
| COc1cc(-c2ccc(C(=O)NC(C)(C)CO)cc2)nc(N)n1 | -25% | 2.52 |
| O=C(c1[nH]nc(C2CC2)c1Br)N1CCOCC1 | -7% | 0.91 |
| CN(C(=O)CN1C[C@H]2CN(C3CCCCC3)C[C@@]2(C(=O)O)C1)c1ccccc1 | 7% | -0.89 |
| O=C(N[C@H]1CCc2n[nH]c(=O)cc2C1)c1ccc2nsnc2c1 | -7% | 1.17 |
| COCC1(CN2C(=O)CNC2=O)CCCC1 | 2% | -0.46 |
